The other results are listed elsewhere or left out. Sequences were assembled here from the parent chain. Values near 0.05 are background.
B1: TEV protease; numbered along this chain (parent)
chain: MGESLFKGPRDYNPISSSICHLTNESDGHTTSLYGIGFGPFIITNKHLFRRNNGTLVVQSLHGVFKVKDTTTLQQHLVDGRDMIIIRMPKDFPPFPQKLKFREPQREERICLVTTNFQTKSMSSMVSDTSCTFPSGDGIFWKHWIQTKDGQCGSPLVSTRDGFIVGIHSASNFTNTNNYFTSVPKNFMELLTNQEAQQWVSGWRLNADSVLWGGHKVFMVKPEEPFQPVKEATQL

Variants of: B1
Assay: raw area under fraction-flipped curve 0-4 h after induction (AUC4h, not background-subtracted), DNA-recorder readout of cleavage of the substrate (dimensionless); higher = more cleavage of the substrate by the protease variant
Conditions: temperature: 34 °C; time window: 0-4 h after rhamnose induction
Description: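 In vivo DNA recorder in E. coli TOP10(DE3) ΔrhaA at 34 °C. Each TEVp single-site mutant (parent TEVp 0) is paired with a single-site variant of the 7-mer TEVs (canonical ENLYFQ|S). The substrate sits between flexible linkers in a Bxb1-sfGFP-TEVs-SsrA fusion, so cleavage stabilises Bxb1 and speeds flipping of a recombination array, read by NGS. The value is the raw area under the fraction-flipped curve over 0-4 h after rhamnose induction (AUC4h), with ≥20 reads per time point. It is not background-subtracted; inactive controls average about 0.047.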
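Further: Bxb1 expression induced with 0.2% (w/v) L-rhamnose at OD600 near 0.5, cultures sampled hourly, flipped fraction per protease–substrate barcode pair counted by paired-end Illumina sequencing.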

| Variant | area with substrate EALYFQS | area with substrate ECLYFQS | area with substrate EELYFQS | area with substrate EFLYFQS | area with substrate EGLYFQS | area with substrate EHLYFQS | area with substrate EILYFQS | area with substrate EKLYFQS | area with substrate ELLYFQS | area with substrate EMLYFQS | area with substrate EPLYFQS | area with substrate EQLYFQS | area with substrate ERLYFQS | area with substrate ESLYFQS | area with substrate EVLYFQS | area with substrate EWLYFQS | area with substrate EYLYFQS | area with substrate ETLYFQS | area with substrate EDLYFQS |
| --- | --- | --- | --- | --- | --- | --- | --- | --- | --- | --- | --- | --- | --- | --- | --- | --- | --- | --- | --- |
| S171P | 0.0518 | 0.0512 | 0.0552 | 0.0583 | 0.0469 | 0.0581 | 0.0576 | 0.063 | 0.087 | 0.054 | 0.0428 | 0.0588 | 0.053 | 0.0575 | 0.0655 | 0.0611 | 0.0648 | – | – |
| I167N | 0.0581 | 0.047 | 0.0969 | – | 0.0652 | 0.0535 | 0.0607 | 0.0618 | 0.0611 | – | 0.0606 | 0.0658 | – | 0.0477 | 0.0542 | – | – | 0.0715 | – |
| I167H | 0.0841 | 0.0576 | – | – | 0.0879 | – | 0.0804 | 0.0653 | – | 0.0718 | – | 0.0673 | – | 0.0686 | 0.0707 | 0.0752 | 0.0642 | 0.0562 | 0.0758 |
| L191V | 0.166 | – | 0.107 | 0.0739 | – | – | – | 0.0845 | 0.0922 | – | – | 0.13 | 0.0965 | – | 0.0937 | 0.0885 | – | 0.0835 | 0.092 |
| V220L | 0.126 | 0.0846 | – | – | 0.0988 | – | 0.0829 | – | 0.0756 | 0.107 | – | 0.103 | 0.101 | 0.0978 | 0.0934 | 0.0937 | – | – | 0.179 |
| K142V | 0.119 | 0.1 | 0.11 | – | – | 0.107 | 0.109 | 0.111 | – | 0.0996 | – | – | 0.0934 | 0.111 | – | – | 0.0563 | – | – |
| F180R | 0.0459 | 0.056 | 0.0448 | 0.0673 | – | 0.0604 | – | – | – | – | – | 0.0435 | 0.0604 | 0.0688 | – | – | 0.0535 | – | 0.0544 |
| V78M | 0.111 | 0.106 | – | – | 0.0883 | 0.0805 | – | 0.0816 | 0.0709 | 0.122 | – | 0.135 | 0.106 | 0.11 | 0.0854 | 0.0782 | – | – | 0.157 |
| W141T | 0.0597 | 0.0701 | 0.055 | – | 0.061 | – | 0.0516 | 0.0637 | 0.0698 | 0.0695 | 0.0632 | 0.0581 | – | 0.07 | 0.0582 | 0.0666 | – | 0.0601 | 0.0655 |
| D161E | 0.0905 | 0.0892 | 0.113 | 0.0721 | 0.0608 | – | 0.0683 | 0.0808 | 0.0836 | 0.0929 | 0.109 | 0.0822 | 0.094 | 0.0868 | 0.0776 | – | 0.0818 | – | 0.0886 |
| I86Y | 0.0468 | 0.0851 | 0.0533 | – | 0.05 | – | – | 0.0624 | – | 0.0518 | – | 0.0651 | – | 0.0613 | 0.0385 | – | 0.0635 | 0.0824 | – |
| P184T | 0.12 | 0.0962 | 0.118 | – | 0.0725 | – | 0.0901 | – | 0.0783 | – | 0.147 | – | – | 0.0871 | 0.0826 | – | 0.0833 | 0.0974 | – |
| K185Q | 0.126 | 0.0921 | – | – | – | 0.0879 | 0.0976 | 0.0949 | 0.0911 | 0.126 | – | – | 0.102 | – | 0.106 | 0.0883 | – | 0.0971 | 0.128 |
| S169Q | 0.049 | 0.0537 | 0.0755 | – | – | 0.0588 | 0.0565 | 0.0581 | 0.0614 | 0.0458 | 0.0588 | 0.0501 | 0.0588 | 0.0661 | 0.0632 | 0.0544 | 0.0572 | – | 0.0453 |
| V57C | 0.113 | 0.0892 | 0.125 | 0.103 | 0.0655 | 0.105 | 0.0728 | – | – | 0.129 | – | 0.127 | 0.11 | 0.101 | 0.0774 | 0.11 | – | 0.11 | 0.123 |
| F49E | 0.0633 | 0.0581 | 0.0462 | 0.0881 | 0.0482 | 0.0655 | 0.0556 | 0.0568 | 0.0482 | 0.0592 | 0.0381 | – | 0.0338 | 0.0626 | 0.0432 | 0.0543 | 0.0648 | – | 0.0619 |
| P228A | 0.137 | 0.0713 | 0.109 | – | 0.111 | 0.0917 | 0.093 | 0.107 | – | 0.13 | 0.0802 | 0.0766 | 0.0902 | 0.105 | – | – | – | – | 0.117 |
| M83S | 0.0709 | – | 0.0714 | 0.0617 | 0.048 | 0.0719 | – | 0.0583 | – | 0.0357 | 0.0715 | 0.0805 | 0.0764 | – | 0.0593 | – | – | – | 0.0623 |
| M83Q | 0.0794 | 0.0554 | 0.04 | 0.068 | – | – | – | – | – | 0.0713 | 0.0697 | 0.0772 | 0.0695 | 0.0648 | 0.0732 | – | 0.0583 | 0.0627 | 0.0659 |
| M83A | 0.0849 | 0.0833 | – | – | 0.0683 | 0.0956 | 0.0772 | – | – | 0.0891 | 0.086 | 0.0945 | 0.0766 | 0.0801 | 0.0814 | 0.0801 | – | 0.063 | 0.0932 |
| I110C | 0.138 | 0.101 | 0.102 | – | 0.0894 | – | 0.117 | 0.119 | 0.103 | 0.103 | 0.123 | 0.0827 | 0.12 | 0.0996 | – | 0.0976 | 0.125 | 0.124 | 0.115 |
| T181S | 0.076 | 0.124 | – | – | 0.0971 | – | 0.107 | – | – | – | – | 0.162 | 0.119 | 0.12 | 0.114 | – | 0.0825 | – | 0.146 |
| F226S | 0.0996 | 0.1 | – | – | 0.103 | – | 0.0845 | – | 0.1 | 0.138 | – | 0.106 | 0.118 | 0.102 | 0.0956 | 0.0879 | 0.088 | 0.125 | 0.133 |
| E108H | 0.0952 | 0.0037 | 0.0699 | – | 0.0557 | 0.0479 | 0.0747 | 0.0763 | 0.0388 | 0.0731 | – | 0.0816 | 0.0799 | 0.0614 | 0.0405 | – | 0.0724 | 0.0783 | 0.0858 |
| V157M | 0.119 | 0.034 | – | – | 0.0829 | – | 0.0919 | 0.0862 | 0.0856 | 0.095 | 0.112 | 0.0944 | 0.102 | 0.0946 | 0.106 | 0.097 | – | 0.088 | 0.0867 |
| Q227R | 0.121 | 0.0739 | – | – | – | 0.0857 | – | – | – | 0.122 | 0.124 | 0.111 | – | 0.0937 | 0.0917 | – | 0.0839 | – | – |
| D208G | 0.0751 | 0.0588 | 0.0796 | – | 0.0734 | 0.0872 | 0.0467 | 0.109 | – | 0.0804 | – | – | 0.0686 | 0.085 | – | – | – | 0.081 | – |
